In PubChem BioAssay AID485294 (National Center for Advancing Translational Sciences (NCATS), 2010):
The whole screen tested about 370,000 compounds, of which about 150 (0.041%) were called active. The shares of active, inactive and inconclusive entries below differ from those in the screen. Calls follow the shape of the dose curve; as a rule, active = well fitted inhibition curve with a large enough effect; inconclusive = small, poorly fitted or top-dose-only effect; inactive = flat fitted curve, though single readings scatter. No potency is given beside an inconclusive call; the fits are too rough.

target: Beta-lactamase (Escherichia coli (strain K12)) (UniProt P00811); test: qHTS Inhibitors of AmpC Beta-Lactamase (assay with detergent); settings: AmpC hydrolysis of nitrocefin, absorbance 480 nm, 0.01% Triton; activity change, negative = inhibition: at 114 µM (top of the series); also: nearly all actives have a fitted effect of over 25% in size;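 as to activity change, negative = inhibition: 0% = no-compound wells and -100% = no-enzyme wells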
Method in brief: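 20 mM phosphate pH 7.0 + 0.01% (detergent screen) or 0.0001% Triton X-100; 5.3 nM AmpC reagent; cpd preinc 15 min RT; nitrocefin (800 uM stock) to start; A480 q20 s × 4 min; Activity was normalised to no-enzyme and no-compound control wells.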
Potency is read from the fitted curve at half-maximal effect; tags tell the direction and shape of the fitted curve.

Sequence of UniProt P00811 (P00811 whole entry, looked up): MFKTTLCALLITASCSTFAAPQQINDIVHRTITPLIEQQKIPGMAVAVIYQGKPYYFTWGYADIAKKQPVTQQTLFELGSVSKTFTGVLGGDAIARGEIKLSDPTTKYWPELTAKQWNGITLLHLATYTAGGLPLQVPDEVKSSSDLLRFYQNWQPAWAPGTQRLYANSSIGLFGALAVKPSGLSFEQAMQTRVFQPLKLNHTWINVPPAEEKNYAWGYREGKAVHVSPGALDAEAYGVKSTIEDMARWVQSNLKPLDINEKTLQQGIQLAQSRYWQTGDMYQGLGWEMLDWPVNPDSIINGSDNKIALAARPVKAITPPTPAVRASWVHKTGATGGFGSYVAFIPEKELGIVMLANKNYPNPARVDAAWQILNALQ

SMILES	Potency	activity change, negative = inhibition
CC(=O)c1cccc(OCc2cc(C(=O)NCc3nc(C)c(C)s3)no2)c1	inactive	
COc1ccc(-c2nc(N)n[nH]2)cc1	inconclusive [inhibitor, single point]	
Cc1[nH]c(C)c(C(=O)O)c1CNC1CCCCC1C (centres undefined)	inactive	
Cc1ccnc(NC(c2ccncc2)c2c(C)[nH]c3ccccc23)c1 (centres undefined)	inactive	
CCCc1ccc(OCCNC(=O)CC)cc1		inconclusive: -15.7% [inhibitor]
O=C(C1CCN(c2nnc(N3CCCC3=O)s2)CC1)N1CCN(Cc2ccc3c(c2)OCO3)CC1	inconclusive [inhibitor, full curve, poor fit]	
Cc1onc(-c2ccccc2)c1C(=O)NC(=S)Nc1sc2c(c1C#N)CCCC2	inconclusive [inhibitor, single point]	
CCN(CC)c1ccc(NC(=O)CN2CCN(c3ccccc3OC)CC2)cc1	inactive	
C#CCOc1ccccc1CNc1ccccc1	inconclusive [inhibitor, partial curve]	
O=C(CCCN1C(=O)CCC1=O)Nc1cccc(C(F)(F)F)c1	inconclusive [inhibitor, full curve, poor fit]	
C/C(=N\N=C1\NC(=O)C(Cc2ccccc2)S1)c1ccccc1 (centres undefined)	inactive	
COc1ccc(S(=O)(=O)N2CCCC2)c2ccccc12	inconclusive [inhibitor, full curve, poor fit]	
COc1ccccc1N=NC1C(=O)N(C(N)=S)N=C1C (centres undefined)	inconclusive [inhibitor, partial curve]	
CCOC(=O)c1sc(NC(C)=O)nc1C	inactive	
O=C(CN1C(=O)c2ccccc2C1=O)NCCc1c[nH]c2ccccc12	inactive	
CCc1cccc(NC(=O)Cn2c(=O)n(CCC(=O)NCc3ccccc3Cl)c(=O)c3sccc32)c1	inactive	
CCN(CCn1cccn1)C(=O)c1ccc(OC2CCN(C(=O)COC)CC2)cc1	inconclusive [inhibitor, full curve, poor fit]	
O=C(NCc1ccco1)C(c1cccs1)N(C(=O)C1COc2ccccc2O1)c1cccc(O)c1 (centres undefined)	inactive	
CN(C(=O)c1cccc(Br)c1)C1CCS(=O)(=O)C1 (centres undefined)	inconclusive [inhibitor, full curve, poor fit]	
CCCc1c(C)c2c(C)[nH]nc2oc1=O	inconclusive [inhibitor, full curve, poor fit]	
CCC(C)c1ccccc1N1CC(C(=O)Nc2ccc(C)c(S(=O)(=O)N3CCOCC3)c2)CC1=O (centres undefined)	inactive	
CCOC(=O)c1c(C)[nH]c(C(=O)CSc2nnc(CC(C)c3ccccc3)o2)c1C (centres undefined)	inconclusive [inhibitor, single point]	

SMILES	Potency	activity change, negative = inhibition
COc1ccc(-c2nc(CN3CCC(C(=O)NC4CC4)CC3)c(C)o2)cc1OC	inconclusive [inhibitor, partial curve, poor fit]	
C[C@@H](CN1C(=O)C(=O)NC[C@@H]1C)NC(=O)CC12CC3CC(CC(C3)C1)C2	inconclusive [inhibitor, full curve]	
COc1ccccc1-c1n[nH]c(=S)n1N	inactive	
Cc1ccc(N(CC(=O)NC2CCCCC2)C(=O)CNC(=O)c2ccco2)cc1C	inconclusive [inhibitor, partial curve]	
Cn1cc(S(=O)(=O)N2CCN(c3ccccc3)CC2)c(=O)n(C)c1=O	inactive	
O=C(Nc1cccc(OC(=O)N2CCOCC2)c1)N1CCOCC1	inconclusive [inhibitor, full curve, poor fit]	
CCOc1ccc(C(=O)NC(=S)Nc2ccc(NC(=O)c3ccco3)cc2)cc1[N+](=O)[O-]	inconclusive [inhibitor, single point]	
Cc1cc(C)nc(SCc2nnc(SCc3ccc([N+](=O)[O-])cc3)n2Cc2ccco2)n1	inconclusive [inhibitor, partial curve, poor fit]	
Cc1cc(C)c(S(=O)(=O)N2CCN(C(=O)c3cc4ccccc4o3)CC2)c(C)c1	inactive	
COc1ccccc1-c1nn(-c2ccccc2)cc1C(=O)NCC(c1ccco1)N1CCCC1 (centres undefined)	inconclusive [inhibitor, full curve, poor fit]	
NC(=O)c1cc(Br)cc(C2CCCCC2)c1O	inconclusive [inhibitor, full curve, poor fit]	
NCC(c1ccccc1)(c1ccccc1)c1ccccc1	inconclusive [inhibitor, full curve, poor fit]	
CC(=O)Nc1ccc(S(=O)(=O)NCC2CCC(C(=O)NC3CCCCCC3)CC2)cc1 (centres undefined)	inconclusive [inhibitor, full curve]	
Cc1cccc(N2C(=O)CSC23C(=O)N(CC(=O)Nc2cccc(Cl)c2)c2ccccc23)c1 (centres undefined)	inconclusive [inhibitor, single point]	
Cc1c(C(=O)O)cnc2cc(-c3ccc(Cl)cc3)nn12	inconclusive [inhibitor, full curve, poor fit]	
CSC1=NCCN1C(=O)c1ccco1	inconclusive [inhibitor, partial curve]	
COc1ccc(/C=N/NC(=O)CCC(=O)Nc2ccccc2)cc1OC	inconclusive [inhibitor, full curve, poor fit]	
CCCOC(=O)c1c(NC(=O)CCCn2nc([N+](=O)[O-])c(Cl)c2C)sc(C(=O)OC)c1C	inconclusive [inhibitor, full curve, poor fit]	
Cc1ccc(S(=O)(=O)C2(C(=O)Nc3cccc(F)c3)CC2)cc1	inconclusive [inhibitor, partial curve]	
COc1ccc(NC(=O)COc2ccc(N(C)S(=O)(=O)c3ccc(Cl)cc3)cc2)cc1OC	inconclusive [inhibitor, full curve, poor fit]	
C/C(=N\O)c1cccc(Br)c1	inactive	
CC(Oc1ccc(Cl)cc1Cl)C(=O)NCCCN1CCOCC1 (centres undefined)	inconclusive [inhibitor, full curve, poor fit]	
